In all, about 310,000 compounds went through this assay and about 14,000 (4.5%) showed an effect of 50% or more. Effects have a minus sign here. The list shows a part of the results.
These compounds were tested against human ether-à-go-go-related gene (hERG) potassium channel (human, UniProt Q12809) (assay: primary screen, population patch clamp on CHO cells stably expressing hERG).
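Note: peak tail current of the secondary pulse compared with the same well before compound.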

Sequence of human ether-à-go-go-related gene (hERG) potassium channel (Q12809 whole entry, looked up): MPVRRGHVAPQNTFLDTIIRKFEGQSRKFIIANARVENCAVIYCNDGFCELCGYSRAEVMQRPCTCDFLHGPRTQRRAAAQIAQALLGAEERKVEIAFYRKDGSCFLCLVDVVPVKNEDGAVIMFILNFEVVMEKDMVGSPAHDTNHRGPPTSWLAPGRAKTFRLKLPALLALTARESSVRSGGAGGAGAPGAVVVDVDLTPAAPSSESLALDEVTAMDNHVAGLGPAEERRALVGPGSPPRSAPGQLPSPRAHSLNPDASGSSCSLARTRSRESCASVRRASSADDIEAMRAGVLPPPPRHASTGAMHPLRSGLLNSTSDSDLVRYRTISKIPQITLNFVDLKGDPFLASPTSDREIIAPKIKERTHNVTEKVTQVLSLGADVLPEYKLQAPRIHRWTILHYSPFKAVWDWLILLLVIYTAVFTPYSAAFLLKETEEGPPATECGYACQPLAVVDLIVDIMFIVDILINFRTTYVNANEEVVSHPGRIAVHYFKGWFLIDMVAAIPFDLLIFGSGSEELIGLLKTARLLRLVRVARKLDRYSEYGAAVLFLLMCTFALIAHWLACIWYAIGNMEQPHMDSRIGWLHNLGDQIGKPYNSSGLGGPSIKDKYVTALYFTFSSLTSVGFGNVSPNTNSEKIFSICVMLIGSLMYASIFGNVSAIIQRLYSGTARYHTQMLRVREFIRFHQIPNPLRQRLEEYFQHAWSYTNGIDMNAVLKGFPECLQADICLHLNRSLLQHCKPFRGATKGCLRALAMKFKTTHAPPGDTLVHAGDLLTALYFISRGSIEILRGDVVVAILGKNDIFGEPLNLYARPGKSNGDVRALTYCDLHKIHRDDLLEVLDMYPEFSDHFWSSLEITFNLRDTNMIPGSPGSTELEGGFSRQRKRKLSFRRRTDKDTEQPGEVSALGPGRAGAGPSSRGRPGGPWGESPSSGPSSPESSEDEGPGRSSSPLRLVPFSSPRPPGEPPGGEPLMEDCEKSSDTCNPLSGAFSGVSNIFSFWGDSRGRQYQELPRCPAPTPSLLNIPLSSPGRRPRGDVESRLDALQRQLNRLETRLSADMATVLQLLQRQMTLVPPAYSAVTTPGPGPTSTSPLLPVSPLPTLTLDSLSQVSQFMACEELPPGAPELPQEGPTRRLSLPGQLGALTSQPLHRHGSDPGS

SMILES | hERG current change (%, negative = inhibition) at 10uM
COc1ccc(C(c2nnnn2CS(=O)(=O)c2ccc(C)cc2)N2CCN(c3ncccn3)CC2)cc1 (stereo not shown) | 2.69%
Cc1cc(=O)cc(C)n1-c1ccc2c(c1)nc(C)n2-c1ccccc1 | -14.7%
CCCNS(=O)(=O)c1ccc(OCC(=O)NCc2ccco2)cc1 | -44.5%
COc1ccccc1-n1cnnc1SCC(=O)Nc1cc(C(C)(C)C)nn1-c1ccccc1 | -21%
O=C(/C=C/c1ccc(F)cc1)N1CCN(Cc2ccccc2)CC1 | -40.6%
CC(=O)Nc1ccc(S(=O)(=O)Nc2nc3ccccc3nc2Cl)cc1 | 15.9%
C=CCNc1nc(Cl)nc(Nc2ccc(OCC)cc2)n1 | -4.95%
NC(=O)c1ccccc1NC(=O)/C=C/C(=O)O | 16.6%
CCCc1cc(=O)oc2cc(Oc3ncccn3)ccc12 | -21.3%
COc1ccc(S(=O)(=O)NCc2ccc(C(=O)N3CCc4ccccc4C3)cc2)cc1 | -16.1%
Cn1cccc1CNC(=O)Nc1ccc(Cl)cc1 | -24.4%
CN(C)S(=O)(=O)c1ccc(C(=O)Nc2cc3c(cc2C(=O)O)OCCCO3)cc1 | 3.73%
CC(C)(C)c1cc[n+](/C(C(=S)NC2CC2)=C(/[O-])c2ccc(Cl)s2)cc1 | -36.6%
O=C(NCCCO)C(=O)NCc1ccccn1 | 23.3%
COc1ccccc1NC(=O)CSc1ccc(-c2ccc(-n3cccn3)cc2)nn1 | 14.5%
Cc1onc(-c2c(F)cccc2Cl)c1C(=O)c1ccccc1O | -0.367%
CC(=O)N(Cc1ccccc1)Cc1nc2sc(C)c(C)c2c(=O)[nH]1 | 12.5%
CCOC(=O)c1c(NC(=O)Cn2nc(C(=O)O)c3ccccc3c2=O)sc2c1CCC(C)C2 (stereo not shown) | 9.53%
Cc1no[n+]([O-])c1COc1ccc(/C=C2\NC(=S)NC2=O)cc1 | -3.66%
COc1ccccc1NC(=O)Cn1cnc2c(cnn2-c2ccccc2)c1=O | 6.91%
Cc1cc(NC(=O)c2c([N+](=O)[O-])cnn2C)no1 | 14.2%
O=C(CN1C(=O)c2ccccc2S1(=O)=O)Nc1ccc(S(=O)(=O)N2CCCC2)cc1 | -16.5%

SMILES | hERG current change (%, negative = inhibition) at 10uM
Cn1c2c(c(=O)n(C)c1=O)C(NS(=O)(=O)c1ccccc1)(C(F)(F)F)C(=O)N2 (stereo not shown) | 16.5%
CCOC(=O)c1cn[nH]c1N | 11%
CC1CCCC/C1=N\NS(=O)(=O)c1ccc(Br)cc1 (stereo not shown) | 0.0516%
CC(=O)c1cc2c(cc1NS(=O)(=O)c1cccc(C(=O)O)c1)OCO2 | 12%
CCc1cccc2c(C(=O)Cn3nnc(-c4ccc(OC)c(OC)c4)n3)c[nH]c12 | 3.71%
CCC(C)c1ccccc1N1CC(C(=O)NCCc2ccc(OC)c(OC)c2)CC1=O (stereo not shown) | 6.41%
CC1=C(C(=O)NC2CCC(C)CC2)C2(CCC(C)CC2)OC1=O (stereo not shown) | 7.63%
COc1ccc(CCNC(=O)C2CC(=O)N(c3ccc(C)cc3)C2)cc1OC (stereo not shown) | -8.21%
Cc1ccc(C)c(N2CCN(C(=O)c3ccc(Cn4c(=O)[nH]c5ccccc5c4=O)cc3)CC2)c1 | 14.3%
CN(C)S(=O)(=O)c1cccc(NC(=O)COc2ccc(C(=O)c3ccccc3)cc2)c1 | -24.6%
COc1ncccc1C(=O)NCC(CC(=O)O)c1ccccc1 (stereo not shown) | -9.34%
CC(=O)c1cccc(NC(=O)c2cnn3ccccc23)c1 | 5.22%
Cc1cc(C)c2c(-n3cccc3)n[nH]c2n1 | 6.04%
C#CC[N+]1(C)C2CCC1CC(O)C2.[Br-] (stereo not shown) | 8.56%
COc1ccc(CCC(=O)Nc2cc([N+](=O)[O-])ccc2OC)cc1 | 6.96%
Cc1cc(C)cc(Oc2ccc(NC(=O)C3CC=CCC3C(=O)O)cc2)c1 (stereo not shown) | 42.8%
CN1CCN(CC(=O)Nc2cc(S(=O)(=O)N3CCOCC3)ccc2Cl)CC1 | 4.13%
COc1ccc(C(=O)C2CCCN(C(=O)c3n[nH]c4c3CCCC4)C2)cc1OC (stereo not shown) | 7.34%
Cc1cc(C)c(N(C(=O)c2csnn2)C(C(=O)NC2CCCC2)c2ccncc2)c(C)c1 (stereo not shown) | -3.14%
CC1CC(C)CN(C(=O)Cc2c(C(=O)O)[nH]c3ccc(Cl)cc23)C1 (stereo not shown) | -11.1%
CCCN(Cc1nnc(-c2ccccc2Cl)o1)C(=O)c1cccc(S(=O)(=O)N2CCOCC2)c1 | -6.05%

— publication PMC4336329 (PLoS ONE, 2015)
